Measurements published in the supplement of paper PMC4967469.
Lines with a small IC50 respond at low doses; where the fit passes the top or lowest dose, that dose stands as a limit. For AUC the same curve is integrated over the 256-fold range of doses and scaled to a fraction: 1 means no effect, lower means more sensitive. For part of these data: Any top dose called inferred was derived from the fitted curves, not read from the paper.

Assays:
Assay in all cases: Viability of human cancer cell lines after 72 h of drug (GDSC screen)
HG-6-64-1 = compound: CCN1CCN(Cc2ccc(NC(=O)c3ccc(C)c(/C=C/c4cnc5[nH]ccc5c4OC)c3)cc2C(F)(F)F)CC1 [HG-6-64-1]; details: top dose 5.12 µM; top dose inferred
Procedure: (§1)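 Human cancer cell lines in 384-well plates, medium with 10% serum, drug for 72 h over a 256-fold dose range (nine 2-fold or five 4-fold steps up to the top dose). Adherent lines were fixed and stained with the nucleic acid dye Syto60, suspension lines read with resazurin; signal relative to control wells, capped at 0 and 100%. One two-parameter sigmoid per drug and line, fitted in a mixed model over all curves with the slope shared within a line.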

I-BET-762 = compound: CCNC(=O)C[C@@H]1N=C(c2ccc(Cl)cc2)c2cc(OC)ccc2-n2c(C)nnc21 [I-BET-762]; details: top dose 20 µM; top dose inferred
Procedure: as §1

Trametinib = compound: CC(=O)Nc1cccc(-n2c(=O)n(C3CC3)c(=O)c3c(Nc4ccc(I)cc4F)n(C)c(=O)c(C)c32)c1 [Trametinib]; details: top dose 1 µM
Procedure: as §1

AV-951 = compound: COc1cc2nccc(Oc3ccc(NC(=O)Nc4cc(C)on4)c(Cl)c3)c2cc1OC [AV-951]; details: top dose 0.128 µM; top dose inferred
Procedure: as §1

PF-4708671 = compound: CCc1cncnc1N1CCN(Cc2nc3ccc(C(F)(F)F)cc3[nH]2)CC1 [PF-4708671]; details: top dose 10 µM; top dose inferred
Procedure: as §1

KIN001-244 = compound: O=C(NC(COc1ccc2[nH]c(=O)[nH]c2c1)c1ccccc1)c1cccn(Cc2ccc(F)c(F)c2)c1=O [KIN001-244]; details: top dose 20 µM; top dose inferred
Procedure: as §1

Cell Line	AUC (HG-6-64-1)	IC50 (HG-6-64-1)	AUC (I-BET-762)	IC50 (I-BET-762)	AUC (Trametinib)	IC50 (Trametinib)	AUC (AV-951)	IC50 (AV-951)	AUC (PF-4708671)	IC50 (PF-4708671)	AUC (KIN001-244)	IC50 (KIN001-244)
Detroit562 (head and neck, adherent)	0.813	2640 nM	0.987	> 20000 nM	0.917	> 1000 nM	0.988	> 128 nM	0.96	> 10000 nM	0.95	> 20000 nM
DoTc2-4510 (cervix, adherent)	0.604	608 nM	0.968	> 20000 nM	0.955	> 1000 nM	0.989	> 128 nM	0.978	> 10000 nM	0.922	> 20000 nM
EBC-1 (lung squamous cell carcinoma, adherent)	0.796	2760 nM	0.96	> 20000 nM	0.195	6.68 nM	0.98	> 128 nM	0.907	> 10000 nM	0.924	> 20000 nM
ECC10 (stomach, suspension)	0.698	1190 nM	0.935	> 20000 nM	0.581	105 nM	0.963	> 128 nM	0.96	> 10000 nM	0.91	> 20000 nM
EFM-19 (breast, adherent)	0.723	1950 nM	0.845	> 20000 nM	0.952	> 1000 nM	0.978	> 128 nM	0.966	> 10000 nM	0.782	13500 nM
EFM-192A (breast, adherent)	0.832	3790 nM	0.871	> 20000 nM	0.955	> 1000 nM	0.983	> 128 nM	0.947	> 10000 nM	0.915	> 20000 nM
EFO-21 (ovary, adherent)	0.741	2170 nM	0.916	> 20000 nM	0.811	844 nM	0.969	> 128 nM	0.929	> 10000 nM	0.858	> 20000 nM
EFO-27 (ovary, adherent)	0.627	786 nM	0.958	> 20000 nM	0.544	85.1 nM	0.977	> 128 nM	0.947	> 10000 nM	0.908	> 20000 nM
EN (endometrium, adherent)	0.982	> 5120 nM	0.972	> 20000 nM	0.972	> 1000 nM	0.97	> 128 nM	0.974	> 10000 nM	0.88	> 20000 nM
EPLC-272H (lung squamous cell carcinoma, adherent)	0.849	4650 nM	0.953	> 20000 nM	0.308	16.7 nM	0.981	> 128 nM	0.979	> 10000 nM	0.871	> 20000 nM
ESS-1 (endometrium, adherent)	0.701	1100 nM	0.97	> 20000 nM	0.844	612 nM	0.985	> 128 nM	0.988	> 10000 nM	0.99	> 20000 nM
EW-7 (Ewing sarcoma, semi-adherent)	0.812	2330 nM	0.966	> 20000 nM	0.978	> 1000 nM	0.988	> 128 nM	0.977	> 10000 nM	0.777	7040 nM
FTC-133 (thyroid, adherent)	0.957	> 5120 nM	0.986	> 20000 nM	0.734	314 nM	0.983	> 128 nM	0.947	> 10000 nM	0.965	> 20000 nM
FU97 (stomach, adherent)	0.663	920 nM	0.949	> 20000 nM	0.728	284 nM	0.985	> 128 nM	0.836	6890 nM	0.879	> 20000 nM
G-361 (melanoma, adherent)	0.654	837 nM	0.914	> 20000 nM	0.107	< 3.91 nM	0.988	> 128 nM	0.688	2040 nM	0.832	12100 nM
G-401 (kidney, adherent)	0.62	708 nM	0.847	16900 nM	0.699	242 nM	0.979	> 128 nM	0.927	> 10000 nM	0.822	13100 nM
G-402 (soft tissue, adherent)	0.39	144 nM	0.892	> 20000 nM	0.755	445 nM	0.814	101 nM	0.921	> 10000 nM	0.813	15600 nM
GAK (melanoma, adherent)	0.878	4770 nM	0.971	> 20000 nM	0.105	< 3.91 nM	0.989	> 128 nM	0.985	> 10000 nM	0.885	> 20000 nM
GAMG (glioma, adherent)	0.73	1500 nM	0.954	> 20000 nM	0.813	573 nM	0.979	> 128 nM	0.905	> 10000 nM	0.845	15500 nM
GCT (soft tissue, adherent)	0.545	421 nM	0.989	> 20000 nM	0.877	886 nM	0.989	> 128 nM	0.956	> 10000 nM	0.989	> 20000 nM
GP5d (large intestine, adherent)	0.649	790 nM	0.895	19800 nM	0.898	> 1000 nM	0.991	> 128 nM	0.984	> 10000 nM	0.937	> 20000 nM
H4 (glioma, adherent)	0.718	1310 nM	0.983	> 20000 nM	0.803	491 nM	0.978	> 128 nM	0.928	> 10000 nM	0.908	> 20000 nM

Cell Line	AUC (HG-6-64-1)	IC50 (HG-6-64-1)	AUC (I-BET-762)	IC50 (I-BET-762)	AUC (Trametinib)	IC50 (Trametinib)	AUC (AV-951)	IC50 (AV-951)	AUC (PF-4708671)	IC50 (PF-4708671)	AUC (KIN001-244)	IC50 (KIN001-244)
H513 (mesothelioma, semi-adherent)	0.975	> 5120 nM	0.972	> 20000 nM	0.606	130 nM	0.981	> 128 nM	0.986	> 10000 nM	0.981	> 20000 nM
H2369 (mesothelioma, adherent)	0.324	101 nM	0.969	> 20000 nM	0.778	420 nM	0.986	> 128 nM	0.966	> 10000 nM	0.912	> 20000 nM
H2373 (mesothelioma, adherent)	0.803	3360 nM	0.98	> 20000 nM	0.725	327 nM	0.972	> 128 nM	0.975	> 10000 nM	0.772	9780 nM
H2461 (mesothelioma, adherent)	0.859	> 5120 nM	0.971	> 20000 nM	0.79	571 nM	0.983	> 128 nM	0.983	> 10000 nM	0.952	> 20000 nM
H2591 (mesothelioma, adherent)	0.694	1330 nM	0.925	> 20000 nM	0.885	> 1000 nM	0.976	> 128 nM	0.947	> 10000 nM	0.857	> 20000 nM
H2595 (mesothelioma, adherent)	0.866	> 5120 nM	0.89	> 20000 nM	0.902	> 1000 nM	0.974	> 128 nM	0.973	> 10000 nM	0.958	> 20000 nM
H2722 (mesothelioma, adherent)	0.884	> 5120 nM	0.934	> 20000 nM	0.703	263 nM	0.984	> 128 nM	0.964	> 10000 nM	0.847	19100 nM
H2731 (mesothelioma, adherent)	0.705	1330 nM	0.532	1550 nM	0.832	771 nM	0.974	> 128 nM	0.948	> 10000 nM	0.852	19100 nM
H2795 (mesothelioma, adherent)	0.572	501 nM	0.987	> 20000 nM	0.362	26.1 nM	0.985	> 128 nM	0.944	> 10000 nM	0.824	11600 nM
H2803 (mesothelioma, adherent)	0.636	812 nM	0.968	> 20000 nM	0.796	559 nM	0.981	> 128 nM	0.896	> 10000 nM	0.978	> 20000 nM
H2804 (mesothelioma, adherent)	0.8	2770 nM	0.904	> 20000 nM	0.984	> 1000 nM	0.985	> 128 nM	0.943	> 10000 nM	0.931	> 20000 nM
H2818 (mesothelioma, adherent)	0.748	1680 nM	0.965	> 20000 nM	0.877	> 1000 nM	0.98	> 128 nM	0.958	> 10000 nM	0.989	> 20000 nM
H2869 (mesothelioma, adherent)	0.754	2100 nM	0.964	> 20000 nM	0.851	> 1000 nM	0.976	> 128 nM	0.976	> 10000 nM	0.91	> 20000 nM
H3118 (head and neck, adherent)	0.688	1140 nM	0.898	> 20000 nM	0.104	< 3.91 nM	0.981	> 128 nM	0.953	> 10000 nM	0.885	> 20000 nM
H3255 (lung adenocarcinoma, adherent)	0.82	3700 nM	0.98	> 20000 nM	0.748	378 nM	0.983	> 128 nM	0.941	> 10000 nM	0.966	> 20000 nM
HARA (lung squamous cell carcinoma, adherent)	0.79	2700 nM	0.921	> 20000 nM	0.645	169 nM	0.968	> 128 nM	0.911	> 10000 nM	0.872	> 20000 nM
HCC38 (breast, adherent)	0.852	4490 nM	0.905	> 20000 nM	0.941	> 1000 nM	0.977	> 128 nM	0.938	> 10000 nM	0.893	> 20000 nM
HCC70 (breast, adherent)	0.92	> 5120 nM	0.827	12000 nM	0.826	593 nM	0.986	> 128 nM	0.972	> 10000 nM	0.828	12100 nM
HCC1395 (breast, adherent)	0.702	1350 nM	0.972	> 20000 nM	0.838	885 nM	0.974	> 128 nM	0.977	> 10000 nM	0.883	> 20000 nM
HCC1419 (breast, adherent)	0.942	> 5120 nM	0.94	> 20000 nM	0.959	> 1000 nM	0.98	> 128 nM	0.824	9670 nM	0.931	> 20000 nM
HCC1428 (breast, adherent)	0.974	> 5120 nM	0.908	> 20000 nM	0.98	> 1000 nM	0.986	> 128 nM	0.969	> 10000 nM	0.947	> 20000 nM
HCC1569 (breast, adherent)	0.739	1990 nM	0.887	> 20000 nM	0.769	507 nM	0.975	> 128 nM	0.83	9360 nM	0.907	> 20000 nM
